Measured values taken from the supplement of paper PMC7826260.
The list shows a part of the results. The data describe in vitro nicking of single-stranded DNA by Rep domains (1 h at 37 °C, 3 µM enzyme); the outer parts of the 90-letter strands are left off. Values are log2 of uncut reads against the no-enzyme pool; uncut sequences lie near 0, cut ones below; no hit call is given. Because reads are shares of a total, they shift together; uncut strands gain when others are lost, and binding without cutting may add a little.

Columns and labels:
Assay in all cases: uncleaved DNA left, log2 of reads against the no-enzyme library (log2 ratio); higher = less cleavage (more negative = more Rep cleavage of the k-mer); sequences stand for … in CTCGTCCG…ACCGGAGA
[1] = tested on: T1, Rep nickase domain of Muscovy duck circovirus
T1 sequence (residues 1-111, tag not shown): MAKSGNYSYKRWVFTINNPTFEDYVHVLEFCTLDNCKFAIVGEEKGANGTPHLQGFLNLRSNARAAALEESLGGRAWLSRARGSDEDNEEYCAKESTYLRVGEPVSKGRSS
Experimental: (§1)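 A pool of 90-nt single-stranded DNAs with seven random bases just before the constant AC of the nick site (name = the seven bases) was cut by 3 µM recombinant His6-SUMO-tagged Rep nickase domain (300 nM DNA, 50 mM HEPES pH 8.0, 50 mM NaCl, 1 mM MnCl2, 1 h, 37 °C, three replicates). Uncut DNA was amplified and sequenced.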

[2] = tested on: T2, Rep nickase domain of banana bunchy top virus
T2 sequence (residues 1-94, tag not shown): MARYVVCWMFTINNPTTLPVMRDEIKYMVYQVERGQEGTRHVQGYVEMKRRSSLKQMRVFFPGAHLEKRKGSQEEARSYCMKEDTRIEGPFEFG
Experimental: as §1

[3] = tested on: T3, Rep nickase domain of cabbage leaf curl virus
T3 sequence (residues 1-116, tag not shown): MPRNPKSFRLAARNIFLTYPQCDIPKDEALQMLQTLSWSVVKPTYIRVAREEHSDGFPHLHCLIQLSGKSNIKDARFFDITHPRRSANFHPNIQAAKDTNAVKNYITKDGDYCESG
Experimental: as §1

[4] = tested on: T4, Rep nickase domain of chickpea chlorotic dwarf virus
T4 sequence (residues 1-124, tag not shown): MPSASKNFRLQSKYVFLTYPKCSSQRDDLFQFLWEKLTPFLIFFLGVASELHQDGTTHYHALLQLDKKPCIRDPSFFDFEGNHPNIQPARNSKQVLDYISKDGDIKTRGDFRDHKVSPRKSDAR
Experimental: as §1

[5] = tested on: T5, Rep nickase domain of faba bean necrotic yellows virus
T5 sequence (residues 1-98, tag not shown): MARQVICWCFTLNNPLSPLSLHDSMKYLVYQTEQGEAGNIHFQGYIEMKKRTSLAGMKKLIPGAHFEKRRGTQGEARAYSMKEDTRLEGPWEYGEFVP
Experimental: as §1

[6] = tested on: T6, Rep nickase domain of maize striate mosaic virus
T6 sequence (residues 1-117, tag not shown): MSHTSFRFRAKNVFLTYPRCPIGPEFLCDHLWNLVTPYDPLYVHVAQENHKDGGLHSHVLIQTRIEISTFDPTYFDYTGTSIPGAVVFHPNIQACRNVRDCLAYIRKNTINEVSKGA
Experimental: as §1

[7] = tested on: T7, Rep nickase domain of porcine circovirus 2
T7 sequence (residues 2-116, tag not shown): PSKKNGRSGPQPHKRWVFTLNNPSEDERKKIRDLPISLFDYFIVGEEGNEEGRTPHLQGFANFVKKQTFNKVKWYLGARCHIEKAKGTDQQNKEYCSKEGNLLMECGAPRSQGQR
Experimental: as §1

[8] = tested on: T8, Rep nickase domain of tomato golden mosaic virus
T8 sequence (residues 1-124, tag not shown): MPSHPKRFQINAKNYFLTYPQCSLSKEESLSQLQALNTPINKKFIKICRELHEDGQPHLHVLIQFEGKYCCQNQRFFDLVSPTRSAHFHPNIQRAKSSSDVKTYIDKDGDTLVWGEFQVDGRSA
Experimental: as §1

[9] = tested on: T9, Rep nickase domain of tomato yellow leaf curl virus
T9 sequence (residues 1-136, tag not shown): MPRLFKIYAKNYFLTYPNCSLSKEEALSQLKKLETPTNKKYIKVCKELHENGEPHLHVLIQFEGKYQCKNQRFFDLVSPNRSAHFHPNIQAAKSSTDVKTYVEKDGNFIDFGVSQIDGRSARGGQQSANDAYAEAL
Experimental: as §1

[10] = tested on: T10, Rep nickase domain of wheat dwarf virus
T10 sequence (residues 1-137, tag not shown): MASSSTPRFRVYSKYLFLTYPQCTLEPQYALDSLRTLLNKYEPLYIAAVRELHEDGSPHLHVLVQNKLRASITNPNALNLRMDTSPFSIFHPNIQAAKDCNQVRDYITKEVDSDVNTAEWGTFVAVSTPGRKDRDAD
Experimental: as §1

Sequence	uncleaved DNA left (log2) [1]	uncleaved DNA left (log2) [2]	uncleaved DNA left (log2) [3]	uncleaved DNA left (log2) [4]	uncleaved DNA left (log2) [5]	uncleaved DNA left (log2) [6]	uncleaved DNA left (log2) [7]	uncleaved DNA left (log2) [8]	uncleaved DNA left (log2) [9]	uncleaved DNA left (log2) [10]
GATTCGG	0.0039	0.0381	0.467	1.31	-0.0244	1.55	0.0919	0.126	0.00244	0.0518
GGTTGGT	-0.088	-0.0405	0.328	0.845	-0.0738	1.23	-0.465	-0.0486	0.0555	0.0398
CACAATC	0.0831	-0.0143	-0.187	-0.258	-0.0299	-0.466	0.0941	0.0041	0.0849	0.113
GCCCTCC	0.148	0.193	0.274	0.602	0.108	0.859	0.171	0.0349	0.0983	0.0158
TGTATCT	-0.00222	0.0837	0.241	-0.817	-0.0991	0.665	-1.25	0.0104	0.0639	0.00911
GCATGAC	0.0399	-0.0266	0.177	0.591	-0.0569	0.0725	0.143	0.0103	-0.0744	0.0073
GCTAGCC	0.0329	0.0787	0.0962	0.505	0.0145	-0.102	0.0623	0.0354	0.0135	-0.0958
AGGGCCG	-0.111	0.0352	-0.449	-0.434	-0.053	-0.705	0.183	0.0139	-0.0125	-0.0636
GCTCATG	0.0734	0.0981	-0.206	0.0887	0.0553	-0.788	0.164	0.128	0.156	0.0899
ACTTGCT	0.0806	0.0698	-0.381	-0.397	0.216	-0.463	-0.276	0.0406	0.194	0.0418
TTATTTA	-0.198	0.0584	0.145	-0.718	-0.0184	0.239	-0.136	0.0145	0.0458	0.0442
TGTTCTC	-0.137	0.0384	0.296	0.601	-0.0204	1.11	0.000461	0.0286	0.104	0.0974
ACCGAGG	0.0552	0.0662	0.116	0.625	0.105	-0.00569	0.298	0.172	0.0595	0.0381
TATCATC	-0.0262	-0.044	-0.0395	-0.292	-0.187	-0.497	-0.1	-0.159	0.0145	-0.0632
GCAAAAC	0.0279	0.0442	0.0884	0.17	-0.0204	-0.45	0.202	0.156	0.0857	0.0532
GCCGAAC	-0.0145	-0.0246	0.0989	0.317	0.0404	0.172	-0.056	-0.067	-0.0659	0.00203
CTAGCAT	-0.067	0.0477	-0.0145	-0.305	0.0044	-0.556	0.0253	-0.00484	-0.0559	0.0304
AGCAACA	0.0918	-0.0363	0.0284	-0.513	-0.0636	0.735	-0.608	-0.0279	-0.00162	0.0511
ATAGCAT	0.0175	0.0333	0.0228	0.153	0.0306	-0.171	0.0787	0.059	0.0145	0.0083
TTTTACT	-4	-1.41	-0.676	-3.14	-0.164	-0.367	-3.69	-0.382	-0.131	-0.616
CGAACTC	0.0428	0.0628	0.092	0.374	-0.0799	0.625	0.124	-0.139	0.0792	0.0568
TCCAATT	0.106	-0.147	0.00281	-2.27	0.0747	-0.504	-0.684	0.014	0.0903	0.0939
TGTCCAC	0.0172	0.0198	0.266	0.728	-0.213	1.24	-0.0896	-0.0409	0.0508	0.0307
TTCTGAT	-0.202	0.0582	0.212	0.117	0.199	0.895	-2.28	0.0659	-0.0428	0.111
ATAAACC	-0.0605	-0.0161	-0.134	-0.949	-0.0353	-0.809	-0.331	0.029	-0.0524	-0.0134
TATTCGC	-0.239	-0.228	-0.749	-0.788	0.0038	-1.16	0.00227	-0.113	-0.053	-0.121
GGGGGGG	-0.0311	-0.078	0.331	0.877	0.0213	1.32	0.0185	0.0618	-0.0988	-0.0423
CGCGCTA	-0.166	-0.0402	-0.277	-0.34	-0.105	-0.454	-0.121	-0.168	-0.00342	-0.164
GACACAG	0.028	0.0674	-0.265	-0.11	0.0359	-0.676	0.184	0.0965	0.0468	0.13
AAGTCCG	-0.0379	0.0048	-0.788	-0.58	-0.0632	-1.04	-0.236	-0.0323	-0.0329	-0.057
